Inconclusive means that the source gave no clear call. Such entries were picked first, then a sample of the others. For part of these data: No potency is given beside an inconclusive call; the fits are too rough. The source made the active and inactive calls. Calls come from the whole dose curve; as a rule, active = well fitted curve in the direction sought with a large enough effect; inconclusive = small, poorly fitted or top-dose-only effect, or another doubt; inactive = no such curve, though single readings can be large; an effect the other way counts as inactive or inconclusive.
How the values were obtained:
[1] = qHTS of pediatric cancer cell lines to identify multiple opportunities for drug repurposing: Primary screen for A673 cells (AID 1347092); conditions: A673 Ewing sarcoma viability, CellTiter-Glo ATP luminescence, 48 h; activity change, negative = cytotoxic: at 46 µM (top of the series); note: nearly all actives have a fitted effect of over 45% in size
Outline: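 Luminescence from CellTiter-Glo, taken after 15 min at room temperature, served as the proxy for metabolically active cells following 48 h treatment. Both potency and efficacy were taken from curves fitted to the titration data.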

[2] = qHTS of pediatric cancer cell lines to identify multiple opportunities for drug repurposing: Primary screen for SK-N-MC cells (AID 1347093); conditions: SK-N-MC viability, CellTiter-Glo luminescence, 48 h; activity change, negative = cytotoxic: at 46 µM (top of the series)
Outline: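 Metabolically active cells were quantified by ATP-dependent luminescence (CellTiter-Glo, 15 min at room temperature) following 48 h treatment. Cells had been plated at 500-1,000 per well and settled for 5 h beforehand.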

[3] = qHTS of pediatric cancer cell lines to identify multiple opportunities for drug repurposing: Primary screen for BT-37 cells (AID 1347094)
Outline: (§1)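 Plated cells (500-1,000 per well, growth media) were allowed to settle for 5 hours, treated with compound dilutions for 48 hours, then lysed with CellTiter-Glo for 15 min at room temperature before luminescence reading.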

[4] = qHTS of pediatric cancer cell lines to identify multiple opportunities for drug repurposing: Primary screen for Rh41 cells (AID 1347108); note: nearly all actives have a fitted effect of over 70% in size;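 for activity change, negative = cytotoxic: luminescence drop marks cytotoxic hits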
Outline: as §1

[5] = qHTS of pediatric cancer cell lines to identify multiple opportunities for drug repurposing: Primary screen for DAOY cells (AID 1347090); conditions: DAOY medulloblastoma viability, CellTiter-Glo luminescence, 48 h; activity change, negative = cytotoxic: at 46 µM (top of the series); note: nearly all actives have a fitted effect of over 55% in size
Outline: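 Cell viability, CellTiter-Glo luminescence; 500-1,000 cells/well, 8- or 11-point titration, 48 h compound exposure at 37 degrees C, 5% CO2. Controls: DMSO neutral, bortezomib 2.3 µM final as positive.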

[6] = qHTS of pediatric cancer cell lines to identify multiple opportunities for drug repurposing: Primary screen for SK-N-SH cells (AID 1347098); note: nearly all actives have a fitted effect of over 65% in size
Outline: (§2)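 Cells (500-1,000/well) rested 5 h, then received compounds for 48 h; metabolically active cells were measured by CellTiter-Glo luminescence. Final concentrations spanned up to 46 µM (MIPE, 11-point) or 0.59 nM-46 µM (NPC, 8-point) in primary screens, 11-point in follow-ups.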

[7] = qHTS of pediatric cancer cell lines to identify multiple opportunities for drug repurposing: Primary screen for NB1643 cells (AID 1347099); note: nearly all actives have a fitted effect of over 50% in size
Outline: as §1

[8] = qHTS of pediatric cancer cell lines to identify multiple opportunities for drug repurposing: Primary screen for BT-12 cells (AID 1347101); note: nearly all actives have a fitted effect of over 25% in size
Outline: as §2

[9] = qHTS of pediatric cancer cell lines to identify multiple opportunities for drug repurposing: Primary screen for OHS-50 cells (AID 1347103); note: nearly all actives have a fitted effect of over 40% in size
Outline: as §2

[10] = molecular target: Glutathione peroxidase 1 (Homo sapiens) (UniProt P07203); experiment: Primary qHTS Assay for Inhibitors of Recombinant Selenoprotein Glutathione Peroxidase 1 (GPX1) (AID 1845191); conditions: activity, negative = inhibition: at 48.8 µM (top of the series); note: nearly all actives have a fitted effect of over 65% in size
UniProt P07203, sequence (P07203 whole entry, looked up): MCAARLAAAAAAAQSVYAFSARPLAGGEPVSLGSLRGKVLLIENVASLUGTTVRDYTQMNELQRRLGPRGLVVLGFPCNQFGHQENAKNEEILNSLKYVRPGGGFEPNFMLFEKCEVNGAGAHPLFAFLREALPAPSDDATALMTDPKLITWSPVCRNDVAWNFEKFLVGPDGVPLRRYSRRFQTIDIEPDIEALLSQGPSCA
Outline: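 NADPH consumption tracked by fluorescence at 340/450 nm between t=0 and t=15 min, room temperature. Final mix: 10 nM GPX1, 100 nM glutathione reductase, 1 mM GSH, 0.5 mM NADPH, 0.5 mM cumene hydroperoxide, 0.01% BSA; 30 min compound–enzyme preincubation.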

[11] = qHTS of pediatric cancer cell lines to identify multiple opportunities for drug repurposing: Primary screen for Rh18 cells (AID 1347102); note: nearly all actives have a fitted effect of over 65% in size
Outline: as §2

[12] = qHTS of pediatric cancer cell lines to identify multiple opportunities for drug repurposing: Primary screen for NB-EBc1 cells (AID 1347095)
Outline: as §1

[13] = qHTS assay to identify inhibitors of the type 1 interferon - major histocompatibility complex class I in skeletal muscle: Counter screen cell viability and HiBit confirmation (AID 1347412); conditions: iHSKM muscle cells + IFN-b, HiBiT or CellTiter-Glo, 24 h; note: nearly all actives have a fitted effect of over 60% in size
Outline: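 Luminescence read-out: Nano-Glo HiBiT lytic signal from C-terminally HiBiT-tagged HLA-B in CRISPR-edited human myoblasts, plus CellTiter Glo ATP as viability counter screen. IFN-beta 4.0 ng/ml; 24 hrs treatment at 37 C, 5% CO2.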

[14] = system: WaGa; experiment: qHTS assay to identify novel small-molecules to repurpose for Merkel cell carcinoma treatment (AID 1296009); conditions: MCC and control cell lines, CellTiter-Glo viability, 72 h; series mostly up to 46 µM; note: nearly all actives have a fitted effect of over 60% in size
Outline: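 Cell viability measured by CellTiter-Glo following 72 hr compound treatment at 37 degree celsius, with NPC and MIPE libraries tested in 8- and 11-point concentration series.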
Potency is the fitted concentration of half-maximal effect; tags give direction and shape of the fitted curve.

SMILES: [Cl][In]([Cl])[Cl]
- Potency [1]: inconclusive [cytotoxic, partial curve, poor fit]
- Potency [2]: inconclusive [cytotoxic, single point]
- Potency [3]: inconclusive [cytotoxic, partial curve, poor fit]
- Potency [4]: inactive

SMILES: Cc1ncc([N+](=O)[O-])n1C
- Potency [5]: inactive
- Potency [2]: inconclusive [cytotoxic, single point]
- Potency [3]: inactive
- Potency [6]: inactive
- Potency [7]: inactive
- Potency [8]: inactive

SMILES: CC(=O)O[C@@H]1C(=O)O[C@@H]2[C@H]1OC(=O)[C@@H]2OC(C)=O
- Potency [5]: inconclusive [cytotoxic, partial curve]
- Potency [7]: inconclusive [cytotoxic, single point]
- Potency [8]: inactive
- Potency [9]: inconclusive [cytotoxic, single point]
- Potency [4]: inactive

SMILES: CN(C)CCCCC(=O)Nc1ccc(NC(=S)NC(=O)c2ccc(C(C)(C)C)cc2)cc1
- Potency [10]: inconclusive [inhibitor, partial curve]

SMILES: C[C@H]1O[C@@H](n2cc(F)c(=O)[nH]c2=O)[C@H](O)[C@@H]1O
- Potency [2]: inconclusive [cytotoxic, single point]
- Potency [11]: inactive
- Potency [10]: inconclusive [inhibitor, full curve]

SMILES: NC(=O)C1(N2CCCCC2)CCN(CCCN2c3ccccc3CCc3ccc(Cl)cc32)CC1
- Potency [5]: inconclusive [cytotoxic, single point]
- Potency [1]: inconclusive [cytotoxic, single point]
- Potency [2]: inconclusive [cytotoxic, single point]
- Potency [3]: inconclusive [cytotoxic, single point]
- Potency [12]: inconclusive [cytotoxic, single point]
- Potency [6]: active: 13.7 µM
- Potency [7]: inconclusive [cytotoxic, single point]
- Potency [8]: active: 19.5 µM
- Potency [11]: inconclusive [cytotoxic, single point]
- Potency [9]: active: 24.6 µM
- Potency [4]: inconclusive [cytotoxic, single point]
- Potency ([13]; HiBiT): inconclusive [inhibitor, single point]
- Potency ([13]; Viability): inconclusive [cytotoxic, partial curve, poor fit]
- Potency [14]: inconclusive [inhibitor, single point]

— PubChem BioAssay (NCATS)
